# Test results from the supplement of paper PMC3334620.
# Whole data set: some 33,000 sequences, median “E-score (-0.5 to 0.5)” near -0.016, cut for the highest 2% near 0.31. This is one part of the list.
# Target: Cst6 (UniProt P40535)
# Assay: PBM E-score (8-mer binding enrichment) (E-score (-0.5 to 0.5)); higher = stronger / more preferred TF binding; most listed sequences are background and not binding sites
# Conditions: protein concentration: 200 nM; construct: GST-DNA-binding domain
# Outline: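 Masliner-normalised scans of fluorescent anti-GST signal were the basis for scoring. That signal came from GST-tagged yeast transcription factors applied at about 100-200 nM to double-stranded universal all-10-mer Agilent arrays on fresh or once-stripped slides. Each ungapped eight-base word, pooled with its reverse complement, received an E-score from the Universal PBM Analysis Suite.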
row,Sequence,PBM E-score
1,CAATAGTC,0.0352
2,CTAATGAG,-0.0645
3,ATGTTACC,0.0741
4,CCGCACGA,0.0776
5,ATAGCACG,-0.0423
6,AGTGCGCG,-0.0765
7,GTGATCAA,0.205
8,CAGATAGG,-0.122
9,AGCGATAC,-0.128
10,CTGAATAC,0.168
11,TCATGCAA,0.148
12,CAGAAAAG,0.126
13,AAATCTCC,-0.258
14,AAGTCGAT,-0.0963
15,AATCCAGC,-0.208
16,GATACCCC,-0.298
17,ACTCATCT,0.0268
18,CAATTCGG,0.0126
19,CTGGAGAA,-0.204
20,AGCCCCAA,-0.281
21,CCACACTA,0.149
22,CCTATGTC,0.0555
23,ACGCGCAG,-0.14
24,GAAATCGC,-0.126
25,AACTGTTC,-0.117

row,Sequence,PBM E-score
1,CCCCCTAG,-0.321
2,CACATCGA,-0.074
3,AAGAACAT,0.194
4,CAAAGTTG,0.117
5,AAGGGGAT,-0.118
6,ATATTCGC,0.159
7,GTCCGAGA,0.0681
8,CGGCTAGC,-0.149
9,TCCCCGCA,-0.0633
10,GGCCAAAC,-0.235
11,AGTCTTGG,-0.0162
12,CATTGGCA,-0.0341
13,AACTCACT,-0.0817
14,CACTTTGA,-0.0952
15,CGAATTTA,0.253
16,GCAATGTA,-0.0392
17,ACCCCTGC,-0.391
18,TAGGCATA,-0.0691
19,GCATTGGC,-0.188
20,AAGCGCCT,-0.0226
21,GAGGGCCC,-0.288
22,TATTATGA,0.268
23,GCCTGCCC,-0.299
24,AACCGCGG,0.144
25,CTGAGTTA,-0.0425

row,Sequence,PBM E-score
1,ATTGGATC,0.0799
2,CGGGAGGC,-0.284
3,TGGTACAA,-0.0168
4,ACTAATCC,-0.0346
5,ATCACGTA,0.344
6,GCCACACC,0.036
7,ATTTGTAG,0.168
8,GCACGTCA,0.459
9,CCTACAAC,0.0423
10,CATGTTAG,-0.0475
11,ATGATTTG,0.0624
12,AGCCGGCA,-0.233
13,AGAGCGAT,-0.2
14,ATCTCAGG,-0.0658
15,AGCCAACA,-0.0616
16,ACCAAAGC,0.00829
17,AGGGTGGG,-0.00684
18,ACGCGTGC,0.0345
19,ATTCGCAG,0.152
20,ACAAGGAG,-0.00622
21,AAGTTAGA,0.113
22,ACAAGATG,0.0277
23,CGAGATAG,-0.17
24,TAATCCGA,0.0425
25,CTTAAAAG,-0.18

row,Sequence,PBM E-score
1,CCATACAC,0.025
2,AGCGCGAG,-0.0497
3,AAGCCACG,0.0393
4,AAATTGGC,0.0384
5,AACGGCTG,-0.0838
6,GCGTTAAC,0.132
7,CTTTATGC,0.112
8,ACATCGAG,-0.123
9,TTGTAAAA,0.137
10,ACAGAAAT,0.235
11,TCGAAGAA,0.0665
12,ACCTGTAA,0.0591
13,CCCAGTAA,-0.101
14,AGGCTCAT,-0.0641
15,ACCAGAAA,-0.0587
16,CCCTCCAA,-0.13
17,ACTATCTG,-0.0119
18,AAGTGCAT,0.248
19,CCCGCGCG,0.165
20,GAGAGAAA,0.0857
21,GCCAGCTA,-0.139
22,CGGGTGAA,0.0903
23,GGCCGGAC,-0.132
24,ATCCAGGG,-0.22
25,AGTCCGGG,-0.228

row,Sequence,PBM E-score
1,CGTCGCCA,-0.0999
2,CTGCCTAC,-0.0193
3,GGACCCAA,-0.283
4,GCTATTCA,0.0257
5,TAACCGTA,0.0149
6,CCATTCCC,-0.296
7,CGTGAACG,-0.241
8,CTAGGATA,-0.125
9,ACGCTATG,0.113
10,CGTTCACC,-0.00233
11,AAAACGTA,0.206
12,ATTGATTG,0.237
13,GCTTTAAC,0.135
14,ATAAATTG,0.258
15,AGTATCTC,-0.00375
16,AAAACATA,0.243
17,GACGGATC,-0.0698
18,AATACGTG,0.176
19,GACTTTGC,-0.051
20,AAGAGCTA,0.119
21,CTTGGCGA,-0.243
22,AGACCAAC,-0.218
23,CAAGGATG,-0.0287
24,GGCTCAAA,0.06
25,CCAACCTC,-0.0635

row,Sequence,PBM E-score
1,ACTCGCCC,-0.324
2,AAAAATAT,0.309
3,GCGATCAC,-0.105
4,TAATTAGA,0.116
5,AATGCCGG,-0.0561
6,ACACGTTC,-0.0249
7,TGACATCA,0.496
8,GTCAGCAA,0.232
9,ACCATCGA,-0.0265
10,AGCCATTA,0.14
11,AAGAAACC,-0.107
12,ACGGCCGG,0.0362
13,TAAGCGAA,0.1
14,AATCTTGC,0.137
15,ACATTTGA,0.151
16,CATAGGCC,-0.248
17,CTACATAA,-0.0447
18,GTTGCAAC,0.264
19,TATAACCA,0.224
20,CTAAAGTC,-0.293
21,CCTGGAGC,-0.109
22,ACTATTAC,0.201
23,ATGCGCGA,-0.215
24,TCGATCCA,-0.0945
25,ACTGGAGA,-0.145

row,Sequence,PBM E-score
1,ATCACAAG,0.117
2,ATGCTTGA,0.0953
3,ATCAGCAA,-0.0659
4,AAAGACCC,-0.0843
5,GCTGAAAA,0.0425
6,AACACCAC,0.0267
7,AGTAGTCA,0.144
8,CGGATCCA,-0.065
9,GAAGGCTA,-0.0593
10,CTATGAAC,0.0157
11,CTCTTTTC,-0.018
12,CTGAGAAA,0.0114
13,GACGTGTA,0.214
14,AACACGAA,0.0914
15,CTCCCGGA,-0.305
16,AAGATGCG,-0.0184
17,AGAGGACT,-0.304
18,AGGTTTAC,-0.125
19,ATCCGATA,-0.137
20,GGGTATCA,-0.179
21,CACGACAA,0.0719
22,CTCCCCTC,-0.312
